Reference: PubChem BioAssay AID485294 (National Center for Advancing Translational Sciences (NCATS), 2010)
Out of some 370,000 compounds screened, about 150 (0.041%) were called active. The inconclusive results got no clear call from the source; some entries with a clear call stand among them for comparison. The call rests on the fitted dose curve; in most records, active means well fitted inhibition curve with a large enough effect; inconclusive means small, poorly fitted or top-dose-only effect; inactive means flat fitted curve, though single readings scatter. No potency is given beside an inconclusive call; the fits are too rough.

What follows are compounds tested against Beta-lactamase (Escherichia coli (strain K12)) (UniProt P00811) (assay: qHTS Inhibitors of AmpC Beta-Lactamase (assay with detergent)). Conditions: AmpC hydrolysis of nitrocefin, absorbance 480 nm, 0.01% Triton; series mostly up to 114 µM.
UniProt P00811, sequence (P00811 whole entry, looked up): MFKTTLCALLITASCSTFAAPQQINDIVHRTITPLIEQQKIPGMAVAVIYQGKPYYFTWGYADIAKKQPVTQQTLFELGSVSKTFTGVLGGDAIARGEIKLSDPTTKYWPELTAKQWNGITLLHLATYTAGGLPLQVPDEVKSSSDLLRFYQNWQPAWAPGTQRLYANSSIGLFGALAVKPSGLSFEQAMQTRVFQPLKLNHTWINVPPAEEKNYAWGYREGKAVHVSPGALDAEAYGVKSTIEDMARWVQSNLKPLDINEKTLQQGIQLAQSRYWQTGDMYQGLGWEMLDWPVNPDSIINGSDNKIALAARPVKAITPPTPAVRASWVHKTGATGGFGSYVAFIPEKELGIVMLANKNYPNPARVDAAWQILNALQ
How it was run: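 AmpC (5.3 nM in the dispensed reagent) in 20 mM phosphate pH 7.0 with 0.01% (detergent screen) or 0.0001% Triton X-100 was preincubated with compounds for 15 min at room temperature. Nitrocefin was then added from an 800 uM solution, and hydrolysis was followed at 480 nm.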
Further: nearly all actives have a fitted effect of over 25% in size.
Potency means the concentration at half of the fitted maximal effect; tags describe the fitted curve by direction and shape.

Structure (SMILES)	Potency
Cc1cc2oc(=O)cc(Cn3ncc(Cl)c(Cl)c3=O)c2cc1Cl	inactive
c1ccc(C[n+]2c(-c3ccccc3)csc2Nc2ccccc2)cc1	inconclusive [inhibitor, single point]
CCn1c2c(c(=O)n3ncc(C(=O)N4CCN(c5ccc(Cl)cc5)CC4)c13)CN(Cc1ccc(OC)cc1)CC2	inactive
COc1ccc(C2CC(c3cccs3)=NN2C(=O)CSc2nncs2)cc1OC (centres undefined)	inconclusive [inhibitor, partial curve]
CCOc1ccc(C(=O)NCC2CCN(CC3CCCCC3)CC2)cc1	inconclusive [inhibitor, full curve, poor fit]
Cc1cc(OCC(=O)Nn2cnnc2)c(C)cc1Br	inconclusive [inhibitor, partial curve]
O=C(Cc1ccc(S(=O)(=O)N2CCOCC2)s1)N(Cc1ccccc1)c1ccccc1	inactive
CC(C)(C)c1ccc(C(=O)Nc2ccc(S(=O)(=O)Nc3cnc4ccccc4n3)cc2)cc1	inactive
CCC1CCCCN1c1nc2c(C=O)c(C)nn2c2ccccc12 (centres undefined)	inactive
Cc1nonc1C1CCCN1Cc1nc(-c2ccccc2Cl)oc1C (centres undefined)	inactive
Nc1ccc(S(=O)(=O)C(F)(F)F)cc1N	inconclusive [inhibitor, full curve, poor fit]
Clc1ccc(-n2ncc3c(NCc4cccs4)ncnc32)cc1	inactive
Cc1cccc(C)c1NC(=O)CNC(=O)Cn1nc(C)c(C)c(C#N)c1=O	inconclusive [inhibitor, single point]
Cc1ccc(CN(C)C(=O)COC(=O)CSc2cc(C)c3ccccc3n2)cc1	inconclusive [inhibitor, single point]
CSc1oc(-c2ccccc2)nc1C(N)=O	inconclusive [inhibitor, partial curve, poor fit]
O=C(NCCc1ccccc1)C(=O)NCC1CCCN1S(=O)(=O)c1ccccc1 (centres undefined)	inconclusive [inhibitor, full curve, poor fit]
Cc1nc(NC(=O)C2CC2)sc1C(=O)Nc1ccccc1	inconclusive [inhibitor, single point]
CS(=O)(=O)Nc1cccc(C(=O)CC2(O)C(=O)Nc3ccc(Br)cc32)c1 (centres undefined)	inconclusive [inhibitor, partial curve]
Cn1c(CCC(=O)Nc2ccc(F)cc2)nc2cc(S(=O)(=O)N3CCOCC3)ccc21	inactive
Cc1c(-n2c(SCC(=O)C(C)(C)C)nc3ccccc3c2=O)c(=O)n(-c2ccccc2)n1C	inconclusive [inhibitor, single point]
Cc1ccccc1CN1C2=NCCN2c2ccccc21	inconclusive [inhibitor, full curve]
CCCN1CCN(C(=O)c2cc(COc3ccc(F)c(F)c3)on2)CC1	inconclusive [inhibitor, partial curve, poor fit]

Structure (SMILES)	Potency
Cn1cc(S(=O)(=O)Nc2cccc(F)c2)c(=O)n(C)c1=O	inconclusive [inhibitor, full curve]
OCCNCCCCOc1ccccc1F	inconclusive [inhibitor, partial curve]
O=C(c1cc(C(=O)NCc2ccccc2)c(=O)n(Cc2ccccc2)c1)c1cc(Br)ccc1O	inactive
N#C/C(=C\c1c(N2CCC(C(N)=O)CC2)nc2ccccn2c1=O)C(=O)NCc1ccco1	inconclusive [inhibitor, full curve, poor fit]
CCn1ncc(Br)c1C(=O)Nc1cccc(F)c1	inactive
CCN(Cc1nc2ccccc2c(=O)[nH]1)Cc1nc2ccsc2c(=O)[nH]1	inactive
O=C(CSc1ncnc2c1oc1ccccc12)Nc1cccc(F)c1	inconclusive [inhibitor, full curve, poor fit]
Cn1nc(-c2ccccc2F)c2cc(C(=O)Nc3ccc4c(c3)OCCO4)sc21	inconclusive [inhibitor, full curve, poor fit]
C/C(=N\Nc1ncc(Cl)cc1Cl)c1ccc(C#N)cc1	inactive
CC1(C)CC(=O)C2=C(C1)N(Cc1ccco1)C(=O)C2(NC(=O)c1ccc(Cl)cc1Cl)C(F)(F)F (centres undefined)	inconclusive [inhibitor, partial curve]
COC(=O)c1ccc2nc(-c3ccc(S(C)(=O)=O)cc3)cn2c1	inconclusive [inhibitor, full curve, poor fit]
CCOC(=O)c1c(-c2ccc(C)cc2)csc1NC(=O)CCN1CC(C)OC(C)C1 (centres undefined)	inconclusive [inhibitor, full curve, poor fit]
Cc1ccc(-n2ncc3c(NCc4ccccc4)ncnc32)cc1	inconclusive [inhibitor, partial curve]
CCN(CC)CCCn1c2c(c(SCC(=O)Nc3cc(OC)cc(OC)c3)nc1=O)CCC2	inconclusive [inhibitor, full curve]
CC(=O)CCC1C2C(O)C(C(C)C)C(OC(=O)/C=C/c3ccccc3)CC12C (centres undefined)	inactive
O=C(NCCSc1ccccc1)c1cccnc1	inactive
Nc1nc(C(=O)N2CCOCC2)nn1S(=O)(=O)c1ccccc1	inconclusive [inhibitor, full curve, poor fit]
C/C(=N\NC(=O)CC1N=C(Cc2ccccc2)NNC1=O)c1ccccc1 (centres undefined)	inconclusive [inhibitor, full curve]
Cc1ccccc1OCc1nc2ccccc2c(=O)n1NC(=O)c1ccco1	inconclusive [inhibitor, partial curve]
COc1cc(N=c2ssnc2Cl)cc(OC)c1OC	inconclusive [inhibitor, partial curve, poor fit]
O=C(CCc1nc2ccccc2c(=O)[nH]1)NCCN1C(=O)S/C(=C\c2ccc(Cl)cc2Cl)C1=O	inconclusive [inhibitor, full curve, poor fit]
Cc1occc1C(=O)N1CCN(c2ccccc2)CC1	inconclusive [inhibitor, full curve]
